Experimental data reported in the supplement of paper PMC3334620.
Whole data set: some 33,000 sequences, median “E-score (-0.5 to 0.5)” near -0.035, cut for the highest 2% near 0.35. The list shows a part of the results.

Target: T1, Pdr3 (UniProt P33200)
T1 sequence: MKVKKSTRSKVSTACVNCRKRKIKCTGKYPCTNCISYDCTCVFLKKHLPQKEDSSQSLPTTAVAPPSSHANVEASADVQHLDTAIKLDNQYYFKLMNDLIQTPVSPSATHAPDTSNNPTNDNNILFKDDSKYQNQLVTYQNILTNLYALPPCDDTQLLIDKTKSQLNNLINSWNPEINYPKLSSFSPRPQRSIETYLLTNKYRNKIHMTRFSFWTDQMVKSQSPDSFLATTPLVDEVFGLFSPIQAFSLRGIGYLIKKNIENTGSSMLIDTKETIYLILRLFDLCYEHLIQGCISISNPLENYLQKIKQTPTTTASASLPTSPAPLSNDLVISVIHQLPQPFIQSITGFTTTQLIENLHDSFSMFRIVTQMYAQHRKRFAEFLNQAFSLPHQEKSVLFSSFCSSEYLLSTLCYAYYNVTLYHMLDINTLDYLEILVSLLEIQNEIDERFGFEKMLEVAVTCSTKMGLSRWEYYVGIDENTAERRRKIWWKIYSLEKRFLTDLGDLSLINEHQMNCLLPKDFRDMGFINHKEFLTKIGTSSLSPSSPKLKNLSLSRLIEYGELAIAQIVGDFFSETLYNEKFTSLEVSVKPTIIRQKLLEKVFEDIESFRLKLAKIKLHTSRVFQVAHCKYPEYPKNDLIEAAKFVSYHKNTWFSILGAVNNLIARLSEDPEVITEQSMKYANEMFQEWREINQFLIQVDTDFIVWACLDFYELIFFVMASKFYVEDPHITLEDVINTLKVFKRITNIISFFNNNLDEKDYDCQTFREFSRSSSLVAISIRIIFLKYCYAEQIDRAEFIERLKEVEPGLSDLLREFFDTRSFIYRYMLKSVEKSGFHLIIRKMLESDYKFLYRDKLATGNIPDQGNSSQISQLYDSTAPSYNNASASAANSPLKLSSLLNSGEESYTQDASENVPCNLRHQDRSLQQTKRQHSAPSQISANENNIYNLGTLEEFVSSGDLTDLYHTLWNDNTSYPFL
Assay: PBM E-score (8-mer binding enrichment) (E-score (-0.5 to 0.5)); higher = stronger / more preferred TF binding; most listed sequences are background and not binding sites
Conditions: protein concentration: 200 nM; construct: GST-full length
Protocol: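 Universal 'all 10-mer' protein binding microarrays (Agilent AMADID 015681) probed with GST-tagged S. cerevisiae TFs (full-length or DBD) made by in vitro transcription/translation (PURExpress), about 100-200 nM. Bound TF was detected with fluorescent anti-GST. Each ungapped 8-mer (which stands for itself and its reverse complement) is scored by the PBM enrichment score (E-score), a modified Wilcoxon-Mann-Whitney statistic from -0.5 to +0.5, computed with the Universal PBM Analysis Suite. Scale: above 0.35 generally sequence-specific binding.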

Sequence	PBM E-score
CATAACGA	-0.0654
CGCAATAA	0.152
ACATATAA	-0.0276
GTTAGCCA	-0.137
AACTACGT	-0.167
ATTACAGG	0.0866
ATGACAGA	-0.189
AACAACAG	-0.166
CAAGGACA	-0.086
GGGCACTA	-0.222
ACTATAAA	0.0095
ATATCTTG	-0.142
AATCGACG	0.058
AATCTCGT	-0.0671
CCTCACAA	0.0036
TAAAAATA	-0.0546
ATGAAGTA	-0.039
AGTTCAGC	-0.102
CGATTGGA	-0.0441
GTCGTCAA	-0.11
GAATATAC	0.13
AGCGCTTG	0.0633

Sequence	PBM E-score
GTGGTAAC	0.0698
CGTCAAAA	0.0576
ATATGGAA	0.138
CATAGTCG	-0.0764
CTGGTAGC	-0.0482
CGTATTGA	-0.225
AAGAATGC	0.08
ACCCTCCG	0.12
ACCGGACG	0.311
AACAGTGC	-0.0314
CTTAATAA	0.0619
GAGACAAA	-0.187
CACGAGTG	-0.0888
GAAATAAC	0.0825
GGCGGTGA	-0.0177
ACCTTTAC	0.0485
CGCGCCCA	0.147
TAACTTAA	0.0276
TATCAACA	-0.00649
ACGGCTAA	0.125
GCAGTCGA	0.0159
AGAGTGTC	0.168

Sequence	PBM E-score
ATATGCAT	-0.105
CAGGTCCC	0.0276
AGCACATG	0.0598
GTATAGTA	0.142
CTCAAAGA	-0.226
ACAGAAAG	-0.154
GACTTATA	0.0712
GCATTGTA	0.0272
ATCTCGGA	0.376
AGTGTCGA	0.0406
CAATTGTC	-0.00242
ACACTACG	0.00776
ACGTGGCA	-0.136
CCGCCTCG	0.0879
AGGTTGTA	-0.114
ACCCACGG	0.267
CGGGCTTC	0.3
ACAGGAAC	-0.0901
TTCATAAA	-0.0336
GGCGACGA	-0.137
AAATGCGA	0.174
CAACAGTG	0.0756

Sequence	PBM E-score
ACACCCCA	-0.0911
ACTATGAG	-0.0997
CGATTGAG	-0.0506
GAATTATA	0.0563
CTACTACA	-0.00513
ACGACTAC	-0.238
GCTGTGAC	-0.158
TCTGTTCA	-0.0161
CTATAGGA	-0.177
ATCCTCCA	-0.24
CGACGACA	-0.118
AGGAGTCA	-0.224
ACCACGGC	0.135
CGTTCGAG	-0.0996
AATGTCGA	-0.0106
GGAAGAAC	0.268
GCGACCTA	0.0108
AGGACAAC	-0.0725
CCTAAGCG	-0.246
GCTGGTGA	0.132
GCAATACC	-0.0416
GGAAAGAC	0.19

Sequence	PBM E-score
AGTCCAAG	-0.236
TCTATTAA	-0.0129
ATAAAAGG	-0.105
GAAATTTA	-0.136
TAGCAGCA	-0.0766
CCGACGCG	0.332
ACATGCTC	-0.00156
TAATGGGA	-0.229
ATATAAGC	-0.112
CCTCCAAC	-0.0891
ACGATATA	-0.189
CACAGAAG	-0.109
TCATCCGA	0.29
CACGAAAC	0.0293
GGCAAAAC	-0.0978
CCGTGCCA	0.105
AGACGAGC	-0.303
GCCTCCAA	-0.111
GCCGGAGA	0.244
CTGCGCTA	-0.216
CCATGACG	-0.0408
ACCGCTTG	0.067
